From the supplement of paper PMC3334620
Whole data set: some 33,000 sequences, median “E-score (-0.5 to 0.5)” near -0.011, cut for the highest 2% near 0.28. This is one part of the list.

These sequences were tested against T1, Gcr1 (UniProt P07261) (assay: PBM E-score (8-mer binding enrichment) (E-score (-0.5 to 0.5)); higher = stronger / more preferred TF binding; most listed sequences are background and not binding sites). Details: protein concentration: 100 nM; construct: GST-full length.
T1 sequence: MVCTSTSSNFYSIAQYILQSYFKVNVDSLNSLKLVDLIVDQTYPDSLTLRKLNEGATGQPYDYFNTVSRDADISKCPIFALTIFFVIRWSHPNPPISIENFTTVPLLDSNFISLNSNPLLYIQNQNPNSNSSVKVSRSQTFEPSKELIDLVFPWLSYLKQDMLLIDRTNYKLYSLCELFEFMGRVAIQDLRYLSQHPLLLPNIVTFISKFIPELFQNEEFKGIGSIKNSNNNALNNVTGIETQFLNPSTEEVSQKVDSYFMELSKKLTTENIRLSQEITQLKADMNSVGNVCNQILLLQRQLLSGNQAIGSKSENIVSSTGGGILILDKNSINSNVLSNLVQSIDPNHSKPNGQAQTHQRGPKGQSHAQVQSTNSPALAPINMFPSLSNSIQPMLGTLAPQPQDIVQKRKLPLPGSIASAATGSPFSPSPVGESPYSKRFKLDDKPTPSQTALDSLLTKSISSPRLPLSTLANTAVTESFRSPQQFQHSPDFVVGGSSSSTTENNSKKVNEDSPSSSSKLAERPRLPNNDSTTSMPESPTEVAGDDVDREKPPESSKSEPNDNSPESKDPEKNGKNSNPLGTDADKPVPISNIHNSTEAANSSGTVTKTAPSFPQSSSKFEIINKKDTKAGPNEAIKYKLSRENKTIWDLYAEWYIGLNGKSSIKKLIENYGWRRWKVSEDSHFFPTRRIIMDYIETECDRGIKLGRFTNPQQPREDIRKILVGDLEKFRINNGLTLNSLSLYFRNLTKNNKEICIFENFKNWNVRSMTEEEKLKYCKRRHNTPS
Summary of the method: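 Yeast transcription factors, full-length or as DNA-binding domains, were expressed with a GST tag using PURExpress in vitro transcription/translation. At about 100-200 nM they were applied to universal all-10-mer Agilent arrays, double-stranded by primer extension on fresh or once-stripped slides. Fluorescent anti-GST detected bound protein, and masliner normalised the scans. E-scores for ungapped eight-base words, pooled with reverse complements, came from the Universal PBM Analysis Suite.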

Sequence | PBM E-score
GCCCTGCA | -0.131
CGTTCAGC | 0.107
ACCGTCAA | -0.117
GAATACGC | 0.229
ACTTCCGA | 0.0686
CCACCTCC | -0.285
AACTTGGA | 0.217
AGGCCCAC | -0.198
AAGCCGAC | 0.0763
CCAGCTGG | 0.157
TCACCGCA | -0.107
CGTCATAG | -0.0105
GAACATAA | -0.116
GGGATGAC | -0.0542
AGGGCGAC | -0.0863
AACCGCGA | 0.0746
AGTAGTGC | -0.194
GCGGAGAC | -0.0251
AGCGCGTG | -0.0626
TCGGGTAA | 0.0973
CGGCCTGC | -0.303
GCCTAAAC | 0.167

Sequence | PBM E-score
GGCGGCAA | 0.154
ATGGCCGA | -0.205
TGACACCA | 0.0294
ATTCCACG | 0.0676
GTGTCCTA | 0.0134
GCGAAGAA | 0.0121
GCAACATA | 0.0275
AGTGGCGA | 0.156
CGGAAGCC | 0.451
GTGTCTGA | 0.0428
ATGAGGTA | -0.0222
AAGCGGAT | 0.114
AAGACGTA | 0.0258
GACTAAGA | -0.174
CTAAATTC | -0.0491
CGGTTCAC | -0.155
GGGTACTA | 0.081
AACGTTAG | -0.0216
CACTCCTA | -0.103
ATAAAAAA | 0.185
CGTGGCGA | 0.017
TCCGCACA | -0.15

Sequence | PBM E-score
CGATCCAG | -0.0472
GTTCGGCA | 0.014
TAGACTGA | 0.00687
CTTCTAAA | 0.153
CTTTTCTA | -0.0632
AGGTGGAT | -0.0209
ACGATGAT | -0.0662
ATCAGTTA | 0.0177
CGAATCAC | -0.0689
TAATGGAA | 0.28
AAAATACC | 0.023
AAGACCCC | 0.0165
ACGCTGAG | 0.104
ACTCACCA | -0.103
AACCTCGA | 0.023
CTAAGAGC | 0.0904
AGCAAGCT | -0.071
AATCAACC | -0.0152
AGAAGTGC | -0.157
AAAAGTAT | -0.0691
AAGGAACC | 0.285
ACGGCGTA | 0.0679

Sequence | PBM E-score
GTGTTCTA | 0.0443
ATTTGAGA | 0.0566
CGCCACCG | -0.174
CAAATCCA | -0.036
CTGTACGA | -0.0931
AGTGTGAG | -0.305
CATGGTTA | 0.0382
CGAACCCA | -0.0992
AAACTCTC | -0.251
ATCTCATC | -0.0285
AGCCTCAT | -0.0448
AAGGACTT | -0.182
AATCACCT | -0.0404
AGAGCGGA | -0.0441
GTTTAGGA | 0.177
ATTGGCGA | 0.0467
CTTGGATA | -0.00334
ACCAGTAG | 0.135
AAGGGTCT | -0.322
GTCCCTAA | 0.16
CTCGCAAA | -0.0456
GACTGTAC | -0.314

Sequence | PBM E-score
ACCCTCTC | -0.0871
CACCATCG | -0.264
GCACAAAA | 0.0313
CCTCTAAA | 0.189
AGCATCTC | 0.121
ATAAAGGG | 0.123
GCCTTGCA | -0.137
ACAATGCC | -0.149
AGCAGAGC | -0.0975
AGGACGTC | 0.155
AAAGGATC | 0.0868
CGTCATCC | 0.0357
CCTGATCA | -0.104
ATAACCCG | -0.25
CATTACGA | 0.148
AACGATAA | -0.0612
CCTGGGAA | 0.169
ACGGTCAA | -0.174
CCGATTCG | 0.0853
CGAACTAA | 0.0461
CGCCTGCA | -0.117
